Data published in the supplement of paper PMC8728848.
Some of the results follow.

Legend:
Test in all cases: glycan array binding signal (z-score within array); higher = stronger binding
Details in all cases: glycan notation: IUPAC condensed, linker removed
[1] = molecular target: Gal(b1-4)GlcNAc(b1-2)[Gal(b1-4)GlcNAc(b1-4)]Man(a1-3)[Gal(b1-4)GlcNAc(b1-2)[Gal(b1-4)GlcNAc(b1-6)]Man(a1-6)]Man(b1-4)GlcNAc(b1-4)GlcNAc
Summary of the method: (§1)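 Columns mapping to the same glycan were averaged after glycan names were converted to IUPAC-condensed notation. The data come from 3228 arrays in the Consortium for Functional Glycomics database, limited to those with an available protein sequence. Binding is reported as a within-array Z-score averaged across arrays of one protein sequence and across linkers.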

[2] = molecular target: Gal(b1-4)GlcNAc(b1-2)[Gal(b1-4)GlcNAc(b1-4)]Man(a1-3)[GlcNAc(b1-4)][Gal(b1-4)GlcNAc(b1-2)Man(a1-6)]Man(b1-4)GlcNAc(b1-4)GlcNAc
Summary of the method: as §1

[3] = molecular target: Gal(b1-4)GlcNAc(b1-2)[Gal(b1-4)GlcNAc(b1-4)]Man(a1-3)[GlcNAc(b1-4)][Gal(b1-4)GlcNAc(b1-2)[Gal(b1-4)GlcNAc(b1-6)]Man(a1-6)]Man(b1-4)GlcNAc(b1-4)GlcNAc
Summary of the method: as §1

[4] = molecular target: Gal(b1-4)GlcNAc(b1-2)[Gal(b1-4)GlcNAc(b1-6)]Man(a1-6)[Gal(b1-4)GlcNAc(b1-2)Man(a1-3)]Man(b1-4)GlcNAc(b1-4)GlcNAc
Summary of the method: as §1

[5] = molecular target: Gal(b1-4)GlcNAc(b1-2)[Gal(b1-4)GlcNAc(b1-6)]Man(a1-6)[Gal(b1-4)GlcNAc(b1-2)Man(a1-3)]Man(b1-4)GlcNAc(b1-4)[Fuc(a1-6)]GlcNAc
Summary of the method: as §1

[6] = molecular target: Gal(b1-4)GlcNAc(b1-2)[Gal(b1-4)GlcNAc(b1-6)]Man(a1-6)[GlcNAc(b1-4)][Gal(b1-4)GlcNAc(b1-2)Man(a1-3)]Man(b1-4)GlcNAc(b1-4)GlcNAc
Summary of the method: as §1

[7] = molecular target: Gal(b1-4)GlcNAc(b1-2)[Gal(b1-4)GlcNAc(b1-6)]Man(a1-6)[GlcNAc(b1-4)][Gal(b1-4)GlcNAc(b1-2)[Gal(b1-4)GlcNAc(b1-4)]Man(a1-3)]Man(b1-4)GlcNAc(b1-4)[Fuc(a1-6)]GlcNAc
Summary of the method: as §1

[8] = molecular target: Gal(b1-4)GlcNAc(b1-3)Gal(b1-3)GalNAc
Summary of the method: as §1

[9] = molecular target: Gal(b1-4)GlcNAc(b1-3)Gal(b1-3)GlcNAc
Summary of the method: as §1

[10] = molecular target: Gal(b1-4)GlcNAc(b1-3)Gal(b1-4)Glc
Summary of the method: as §1

[11] = molecular target: Gal(b1-4)GlcNAc(b1-3)Gal(b1-4)GlcNAc
Summary of the method: as §1

[12] = molecular target: Gal(b1-4)GlcNAc(b1-3)Gal(b1-4)GlcNAc(b1-2)Man(a1-3)[Gal(b1-4)GlcNAc(b1-3)Gal(b1-4)GlcNAc(b1-2)Man(a1-6)]Man(b1-4)GlcNAc(b1-4)GlcNAc
Summary of the method: as §1

[13] = molecular target: Gal(b1-4)GlcNAc(b1-3)Gal(b1-4)GlcNAc(b1-2)Man(a1-3)[Gal(b1-4)GlcNAc(b1-3)Gal(b1-4)GlcNAc(b1-2)Man(a1-6)]Man(b1-4)GlcNAc(b1-4)[Fuc(a1-6)]GlcNAc
Summary of the method: as §1

[14] = molecular target: Gal(b1-4)GlcNAc(b1-3)Gal(b1-4)GlcNAc(b1-2)[Gal(b1-4)GlcNAc(b1-3)Gal(b1-4)GlcNAc(b1-6)]Man(a1-6)[Gal(b1-4)GlcNAc(b1-3)Gal(b1-4)GlcNAc(b1-2)Man(a1-3)]Man(b1-4)GlcNAc(b1-4)GlcNAc
Summary of the method: as §1

[15] = molecular target: Gal(b1-4)GlcNAc(b1-3)Gal(b1-4)GlcNAc(b1-2)[Gal(b1-4)GlcNAc(b1-3)Gal(b1-4)GlcNAc(b1-6)]Man(a1-6)[Gal(b1-4)GlcNAc(b1-3)Gal(b1-4)GlcNAc(b1-2)Man(a1-3)]Man(b1-4)GlcNAc(b1-4)[Fuc(a1-6)]GlcNAc
Summary of the method: as §1

[16] = molecular target: Gal(b1-4)GlcNAc(b1-3)Gal(b1-4)GlcNAc(b1-3)Gal(b1-4)GlcNAc
Summary of the method: as §1

[17] = molecular target: Gal(b1-4)GlcNAc(b1-3)Gal(b1-4)GlcNAc(b1-3)Gal(b1-4)GlcNAc(b1-2)Man(a1-3)[Gal(b1-4)GlcNAc(b1-3)Gal(b1-4)GlcNAc(b1-3)Gal(b1-4)GlcNAc(b1-2)Man(a1-6)]Man(b1-4)GlcNAc(b1-4)GlcNAc
Summary of the method: as §1

[18] = molecular target: Gal(b1-4)GlcNAc(b1-3)Gal(b1-4)GlcNAc(b1-3)Gal(b1-4)GlcNAc(b1-2)Man(a1-3)[Gal(b1-4)GlcNAc(b1-3)Gal(b1-4)GlcNAc(b1-3)Gal(b1-4)GlcNAc(b1-2)Man(a1-6)]Man(b1-4)GlcNAc(b1-4)[Fuc(a1-6)]GlcNAc
Summary of the method: as §1

[19] = molecular target: Gal(b1-4)GlcNAc(b1-3)Gal(b1-4)GlcNAc(b1-3)Gal(b1-4)GlcNAc(b1-2)[Gal(b1-4)GlcNAc(b1-3)Gal(b1-4)GlcNAc(b1-3)Gal(b1-4)GlcNAc(b1-6)]Man(a1-6)[Gal(b1-4)GlcNAc(b1-3)Gal(b1-4)GlcNAc(b1-3)Gal(b1-4)GlcNAc(b1-2)Man(a1-3)]Man(b1-4)GlcNAc(b1-4)[Fuc(a1-6)]GlcNAc
Summary of the method: as §1

[20] = molecular target: Gal(b1-4)GlcNAc(b1-3)Gal(b1-4)GlcNAc(b1-3)Gal(b1-4)GlcNAc(b1-3)Gal(b1-4)GlcNAc(b1-2)Man(a1-3)[Gal(b1-4)GlcNAc(b1-3)Gal(b1-4)GlcNAc(b1-3)Gal(b1-4)GlcNAc(b1-3)Gal(b1-4)GlcNAc(b1-2)Man(a1-6)]Man(b1-4)GlcNAc(b1-4)GlcNAc
Summary of the method: as §1

[21] = molecular target: Gal(b1-4)GlcNAc(b1-3)Gal(b1-4)GlcNAc(b1-3)Gal(b1-4)GlcNAc(b1-3)Gal(b1-4)GlcNAc(b1-2)Man(a1-3)[Gal(b1-4)GlcNAc(b1-3)Gal(b1-4)GlcNAc(b1-3)Gal(b1-4)GlcNAc(b1-3)Gal(b1-4)GlcNAc(b1-2)Man(a1-6)]Man(b1-4)GlcNAc(b1-4)[Fuc(a1-6)]GlcNAc
Summary of the method: as §1

[22] = molecular target: Gal(b1-4)GlcNAc(b1-3)Gal(b1-4)GlcNAc(b1-3)Gal(b1-4)GlcNAc(b1-3)Gal(b1-4)GlcNAc(b1-2)[Gal(b1-4)GlcNAc(b1-3)Gal(b1-4)GlcNAc(b1-3)Gal(b1-4)GlcNAc(b1-3)Gal(b1-4)GlcNAc(b1-6)]Man(a1-6)[Gal(b1-4)GlcNAc(b1-3)Gal(b1-4)GlcNAc(b1-3)Gal(b1-4)GlcNAc(b1-3)Gal(b1-4)GlcNAc(b1-2)Man(a1-3)]Man(b1-4)GlcNAc(b1-4)[Fuc(a1-6)]GlcNAc
Summary of the method: as §1

B1: PpFlo1 (Pichia pastoris) (protein)
chain: MGSSHHHHHHSSGLVPRGSHMQESGDGDISDSAYACDIDATRYDGFNATIYEFQPGDGRLTRDPVFMSTGYLNRTQLHSITGVTDPGFSIYTPGVPTTTLYGIPNVNWENLLLELKGYFRAEVSGDYGLSLRNIDDSAILFFGKETAFQCCNENSISNEASTDYSLFTIFRQEGDETTNLDSFTYTQYLEAGKYYPVRTFFVNIERHAVFNFTMTLPDGTELTDFHNYIYQFGALDEEQCQA
glycan array binding signal (z-score) [1]: -0.501 | glycan array binding signal (z-score) [2]: -0.266 | glycan array binding signal (z-score) [3]: -0.171 | glycan array binding signal (z-score) [4]: -0.079 | glycan array binding signal (z-score) [5]: -0.022 | glycan array binding signal (z-score) [6]: -0.527 | glycan array binding signal (z-score) [7]: -0.081 | glycan array binding signal (z-score) [8]: -0.365 | glycan array binding signal (z-score) [9]: 0.378 | glycan array binding signal (z-score) [10]: -0.3 | glycan array binding signal (z-score) [11]: -0.278 | glycan array binding signal (z-score) [12]: 0.578 | glycan array binding signal (z-score) [13]: 0.168 | glycan array binding signal (z-score) [14]: 0.257 | glycan array binding signal (z-score) [15]: 0.048 | glycan array binding signal (z-score) [16]: 0.361 | glycan array binding signal (z-score) [17]: 0.867 | glycan array binding signal (z-score) [18]: -0.205 | glycan array binding signal (z-score) [19]: 0.61 | glycan array binding signal (z-score) [20]: 0.305 | glycan array binding signal (z-score) [21]: 0.619 | glycan array binding signal (z-score) [22]: -0.216
